Usually % Inhibition stands for the drop in the measured response relative to a control, in per cent.

Data on 84 molecules can be found in ChEMBL document CHEMBL4888484, “Replenishing the malaria drug discovery pipeline: Screening and hit evaluation of the MMV Hit Generation Library 1 (HGL1) against asexual blood stage Plasmodium falciparum ,using a nano luciferase reporter read-out” (2022).

Molecules are shown by their SMILES. In all, about 150,000 compounds went through this assay and about 540 (0.36%) showed an effect of 50% or more. The list shows a part of the results.

This test relates to Plasmodium falciparum. Put plainly: Primary screen in NF54 nanoGlo assay, in single point, at 2uM, 72h; a lower Z score goes with more inhibition. It is filed as functional, Erythrocyte. The settings on record: timepoint 72 hour.
Consider `CCOC(=O)N1CCC(N2C(=O)c3ccc(C(=O)NCc4ccccc4OC)cc3C2=O)CC1`, for which the “% Inhibition” value is reported as -9% and the Z score was determined as 1.31.
In the same order, the values of `CC(C)[C@H](NCc1cnn(C)c1)c1ccc2c(c1)CCO2` are -3% and 0.46.
The matching figures for `CC1CCN(Cc2ccc(C(=O)NC[C@H]3CN(C)C(=O)CO3)o2)CC1`: -2% and 0.4.
In the same order, the values of `Cn1nnc2c1CCC(NC(=O)NC1COc3c1ccc(Cl)c3Cl)C2` (stereo not drawn) are -6% and 1.07.
In the case of `Cc1nc2c(c(=O)n1C)CCN(C(=O)c1cccc3c1NCCC3)CC2`, the “% Inhibition” value is listed as 1% and the Z score was -0.15.
With `C[C@](O)(CNC(=O)c1ccc(-c2ccsc2)cc1)C1CC1`, the “% Inhibition” value was -10% and the Z score was found to be 1.73.
As to `O=C(Nc1ccc(Cl)cc1)c1cnn2c3c(cnc12)CCCCC3`, the “% Inhibition” value is listed as -7% and the Z score is recorded as 1.02.
Consider `N#CC1(C(=O)N2CCN(S(=O)(=O)c3ccc4ccccc4c3)CC2)CCCCC1`, for which the “% Inhibition” value is recorded as -9% and the Z score is 1.47.
In the case of `COc1cc(C)c(-c2nc3ccccc3c(=O)n2Cc2ccccc2)cc1C`, the “% Inhibition” value is on record as 0% and the Z score is 0.05.
On to `CCc1ccccc1S(=O)(=O)Cc1ccc(C(=O)N2CCN(c3ccccc3OC)CC2)o1`, for which the “% Inhibition” value is listed as -18% and the Z score worked out at 2.3.
In the same order, the values of `Cc1noc(C)c1CN(C)CC1=CC[C@H]2C[C@@H]1C2(C)C` are -6% and 0.94.
For the molecule `COC(=O)CN(CC#N)Cc1cccc(Cl)c1F`, the “% Inhibition” value is -9% and the Z score came out at 0.97.
On to `C[C@H](O)c1cc2n(n1)CCN(Cc1cnn(-c3ccc4ccccc4c3)c1)C2`, for which the “% Inhibition” value was -14% and the Z score is listed as 1.93.
In the same order, the values of `O=C(NC[C@H](N1CCOCC1)C(F)(F)F)c1nc2c(s1)CCC2` are -7% and 0.87.
Regarding `CCN(Cc1c(CO)cnc(C)c1O)C[C@H]1CCCO1`, the “% Inhibition” value is recorded as -9% and the Z score came out at 1.32.
In the same order, the values of `Cc1ccc(C(=O)N(CC(=O)N2CCc3sccc3[C@@H]2COc2ccccc2C)C(C)C)cc1` are -4% and 0.74.
As to `CN1CCN(c2cc(N3CCC([C@H](O)C(=O)NC4CC4)CC3)ncn2)CC1=O`, the “% Inhibition” value was -32% and the Z score was 3.72.
In the case of `CCOC(=O)c1cnn(CCN2CCOC[C@@H]2C)c1N`, the “% Inhibition” value is -6% and the Z score stood at 1.17.
In the case of `CC(C)c1ccc(N2CCC[C@H](CCC(N)=O)C2)nn1`, the “% Inhibition” value was determined as 11% and the Z score was -1.25.
`C[C@@H](CN(C)Cc1cnn(C2CCCC2)c1-c1ccccc1)C(=O)O`: the “% Inhibition” value is on record as -9% and the Z score was found to be 0.94.
Consider `CCNC(=O)N1CCCc2cnc(N3CCOCC3)nc21`, for which the “% Inhibition” value is -16% and the Z score is given as 1.78.
Turning to `CC(C)C(=O)NCC(=O)Nc1ccc(C(F)(F)F)cc1`, the “% Inhibition” value amounted to 35% and the Z score is -4.74.
For `CC1CCC(NC2CC(=O)N(C(C)C)C2=O)C(C)C1` (stereo not drawn), the “% Inhibition” value is -11% and the Z score is reported as 1.45.
For `Cc1cccc(CCCn2ccnn2)c1`, the “% Inhibition” value is -1% and the Z score amounted to 0.11.
As to `CC/C(C)=C/CCc1ccccc1-c1nnc(C)o1`, the “% Inhibition” value is -15% and the Z score was determined as 1.74.
The matching figures for `Cc1cccc(NC(=O)C2[C@H]3C=C[C@@]4(O3)C(C(=O)NC3CCCCC3C)N(C3CCCCCC3)C(=O)[C@@H]24)c1` (stereo partly drawn): -9% and 1.37.
Consider `Cc1cc2occ(C(=O)NS(=O)(=O)C(C)C)c2cc1C`, for which the “% Inhibition” value is -11% and the Z score turned out to be 1.38.
For the molecule `COc1ccc(-c2cn(CCN3CCOCC3)nn2)cn1`, the “% Inhibition” value is on record as -11% and the Z score came out at 1.65.
As for `O=C(NCc1cccc(COC2CCOCC2)c1)c1c[nH]nc1-c1ccsc1`, the “% Inhibition” value is on record as 2% and the Z score is -0.24.
As for `CC1CN(c2ccc(NCc3cnc(N4CCOCC4)nc3)cc2)CC(C)O1` (stereo not drawn), the “% Inhibition” value is given as -14% and the Z score is on record as 2.33.
`Cc1ccc(CN2C(=O)OC(c3cccc(NC(=O)c4cccs4)c3)C2C(=O)NCC(C)C)cc1` (stereo not drawn): the “% Inhibition” value is -11% and the Z score turned out to be 2.05.
As to `Cc1cc2ccccc2n1CC(=O)N1CCC(c2nc3ccccc3o2)CC1`, the “% Inhibition” value is on record as -11% and the Z score was 1.22.
Consider `CC(C)c1cnc(-c2cnn(C)c2)s1`, for which the “% Inhibition” value is on record as -4% and the Z score is 0.64.
As for `Cc1nc(-c2ccc(NC(=O)c3ccc4ccccc4n3)cc2)co1`, the “% Inhibition” value is reported as 17% and the Z score was -2.32.
As for `C=CCNc1nc(-c2ccc(C)c(C)c2)cc(C(F)F)n1`, the “% Inhibition” value is -43% and the Z score turned out to be 5.04.
As for `CCCN(Cc1c(C)nn(-c2cccc(F)c2)c1N1CCN(CC)CC1)C(=O)Cc1ccc(F)cc1`, the “% Inhibition” value is listed as -10% and the Z score was 0.98.
The matching figures for `Brc1cccnc1NCc1cccc2cn[nH]c12`: 1% and -0.13.
In the same order, the values of `Cc1cccc(Nc2nc(C)c(C(=O)N(C)Cc3ccccc3)s2)n1` are -4% and 0.56.
In the same order, the values of `COc1ccc(-n2nc(C)c3c2NC(=O)C[C@@H]3c2ccc(OCC(C)C)c(OC)c2)nn1` are -5% and 0.58.
As to `COc1ccsc1C(=O)N(CCC#N)CC(C)(C)C`, the “% Inhibition” value is reported as -13% and the Z score is reported as 1.23.
In the same order, the values of `COc1ccc(CN(CC(C)C)CC2CCN(Cc3ccccc3OC)CC2)cc1O` are -4% and 0.74.
On to `CCn1cnnc1CN1C[C@@H]2NC(=O)CN(CCOC)C(=O)CCc3ccc(OC)c(c3)Oc3cccc(c3)CO[C@H]2C1`, for which the “% Inhibition” value is given as -7% and the Z score is 0.88.
For `CCc1cc(C#N)ccc1NC(=O)N1C[C@H]2CCC[C@@]2(CO)C1`, the “% Inhibition” value is -16% and the Z score came out at 3.04.
In the same order, the values of `CN(c1ccc(F)c(F)c1)S(=O)(=O)c1ccsc1-c1nc(-c2cccnc2)no1` are 3% and -0.4.
Turning to `CCOc1ccc(OS(=O)(=O)c2ccc3c(c2)C(=O)N(C)C3=O)cc1`, the “% Inhibition” value was -16% and the Z score was determined as 3.02.
The matching figures for `CC1(C)C[C@@H](CNc2ccc3nncn3n2)CCO1`: 6% and -0.76.
Regarding `O=C(c1c[nH]cn1)N1CC[C@@H](c2cccs2)S(=O)(=O)CC1`, the “% Inhibition” value is on record as 7% and the Z score is listed as -1.21.
Regarding `COC[C@@H]1[C@H](C(=O)NC2CCCCC2)CCCN1Cc1ccccc1`, the “% Inhibition” value is listed as -2% and the Z score turned out to be 0.27.
Regarding `O=C(CNc1ccccc1N1CCCCC1)Nc1ccc2c(c1)CCC2`, the “% Inhibition” value is on record as -7% and the Z score is listed as 1.01.
With `CCc1cnc([C@H](C)NC(=O)c2cccc3nn[nH]c23)s1`, the “% Inhibition” value is reported as -11% and the Z score came to 1.48.
Take `Cc1ccc(NC(=O)N2CC[C@H](N3CCN(C)CC3)[C@H](CCC(=O)O)C2)c(C)c1`: the “% Inhibition” value was 16% and the Z score is given as -2.12.
Consider `CC(C)(C)CN1C[C@@H](NC2Cc3ccccc3C2)CC1=O`, for which the “% Inhibition” value came out at 4% and the Z score was -0.49.
For `COCCNC(=O)c1ccc(NC(=O)N2CC[C@H]2c2ccc(F)cc2)cc1`, the “% Inhibition” value is reported as -6% and the Z score was 0.9.
As to `CC(C)(C)OC(=O)N1CCC(c2c(C(=O)NCCN3CCOCC3)cnn2C(C)(C)C)CC1`, the “% Inhibition” value is listed as -13% and the Z score is listed as 1.97.
Consider `O=C(OC1C2CC3C(=O)OC1C3C2)c1ccc2ncccc2c1` (stereo not drawn), for which the “% Inhibition” value was -7% and the Z score is given as 0.9.
Take `COc1cc(-c2onc(C)c2C(=O)NCc2cnc(C)cn2)cc(OC)c1OC`: the “% Inhibition” value is listed as -13% and the Z score was 1.88.
As to `CCc1ccc(C(=O)N2CCC(Nc3nccs3)CC2)c(O)c1`, the “% Inhibition” value is -5% and the Z score was found to be 0.72.
As for `COc1c(C)ncnc1N1CCC[C@H](c2ncc[nH]2)C1`, the “% Inhibition” value was -5% and the Z score was 0.64.
In the case of `COc1cc(CCc2nc(C)ccc2O)cc(S(=O)(=O)O)c1OC`, the “% Inhibition” value is -15% and the Z score was found to be 1.76.
In the case of `COC1CCC(C)(CNC(=O)N2CCC3(CC2)NC(=O)CO3)CC1` (stereo not drawn), the “% Inhibition” value is reported as -8% and the Z score is on record as 1.29.
Take `C[C@@H](Cn1cncn1)NC(=O)Nc1cc(-c2ccco2)ccc1F`: the “% Inhibition” value is on record as 5% and the Z score is reported as -0.97.
Regarding `CC[C@@H](CN(C)C)NC(=O)N(C)Cc1ccnc(C)c1`, the “% Inhibition” value is on record as -3% and the Z score came out at 0.64.
For the molecule `C[C@H](NC(=O)N1CCC(C2CCOCC2)CC1)c1cscn1`, the “% Inhibition” value was -4% and the Z score was 0.53.
For the molecule `Cc1nc2ccc(CN[C@@H](C)CCn3cccn3)cc2[nH]1`, the “% Inhibition” value is -2% and the Z score is listed as 0.49.
With `Cc1nc(Cn2nnc(NC(=O)NC3CCCCC3C)c2C)no1` (stereo not drawn), the “% Inhibition” value is recorded as 6% and the Z score is listed as -1.11.
In the same order, the values of `O=C(NC1CC1)C1CN(c2cc(-n3ccnc3)ncn2)C1` are 14% and -1.9.
In the same order, the values of `CC(C)(C(=O)N1CCn2c(cc3cc(Cl)ccc32)C1)S(C)(=O)=O` are -11% and 2.17.
With `Cc1c(CN2C[C@@H]3NCCO[C@H]3C2)[nH]c2c(Cl)cccc12`, the “% Inhibition” value is -4% and the Z score stood at 0.55.
For `NCc1ccc(F)cc1Br`, the “% Inhibition” value is -24% and the Z score was found to be 2.37.
In the same order, the values of `CC(C)C(=O)NCCN(C)[C@H]1CCc2ccccc2NC1=O` are -8% and 1.05.
As for `C=CCN(Cc1nccn1Cc1ccccc1Cl)S(=O)(=O)c1ccc(OC)cc1`, the “% Inhibition” value is given as -17% and the Z score came to 3.03.
Consider `Cc1ccc(CNC(=O)c2snc(C(=O)NC(C)C)c2N)o1`, for which the “% Inhibition” value is -20% and the Z score was 1.89.
For `O=C(c1cccc(S(=O)(=O)N2CCOCC2)c1)N1CCc2ccccc2C1`, the “% Inhibition” value is given as -8% and the Z score was determined as 0.92.
Consider `CC[C@@]1(C)CCCN(c2cc(=O)n(C)c(=O)n2C)C1`, for which the “% Inhibition” value is on record as -6% and the Z score came to 1.22.
As for `COC(=O)[C@@H]1C[C@H](O)CN1Cc1ccccc1N(C)C`, the “% Inhibition” value is -11% and the Z score is listed as 1.65.
In the same order, the values of `Cc1ccc(-c2cc(NC(=O)c3ccccc3)c(=O)n(CC(=O)Nc3ccc(F)cc3)n2)cc1` are -10% and 1.6.
Consider `CC(C)[C@@H]1N(C(=O)C2(C)COC2)CC12CCC2`, for which the “% Inhibition” value is 0% and the Z score is 0.05.
`COc1cc2c(cc1O)NC(=O)C[C@H]2c1c(C)nn(C)c1Cl`: the “% Inhibition” value is -2% and the Z score was found to be 0.2.
For `CCN1CCC[C@H](c2[nH]cnc2-c2ccccc2)C1`, the “% Inhibition” value is recorded as -12% and the Z score is reported as 1.56.
Consider `CCOc1ncccc1C(=O)N1CCNC(=O)C[C@@H]1C`, for which the “% Inhibition” value is reported as 1% and the Z score is reported as -0.07.
As to `CN1CCN(C(=O)CCc2conc2-c2ccccc2)CC1`, the “% Inhibition” value is on record as 7% and the Z score is recorded as -0.91.
As for `Cc1cc(S(=O)(=O)N2CCC[C@@H]2CN)c(C)s1`, the “% Inhibition” value is -4% and the Z score turned out to be 0.56.
`NC(=O)c1c(NC(=O)c2ccno2)sc2c1CCCC2`: the “% Inhibition” value is on record as -15% and the Z score was determined as 2.27.
On to `CN(CC(=O)NC1CC1)C1CCCCCC1`, for which the “% Inhibition” value is -7% and the Z score was found to be 1.08.
